Reference: PubChem BioAssay AID488969 (Vanderbilt High Throughput Screening Facility, 2010)
The full ranking holds about 110,000 compounds; the median of “z-score” is about -0.1, and the highest 2% start at about 2. The list shows a part of the results. Calls of active or inactive are those of the source.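 Rule for the calls: active = z-score in the third read window above 3 or below -3; inactive = the rest.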

The compounds below were run against Metabotropic glutamate receptor 8 (Rattus norvegicus) (UniProt P70579) (assay: rat mGluR8 modulators via GIRK flux, primary screen, cell-based, thallium flux, HTS (AID 488969)). Settings: HEK293 rat mGluR8, GIRK (G protein-gated inwardly rectifying potassium channel) thallium flux, FluoZin2; at 10 µM; stronger effect = higher value; submaximal glutamate (EC20) added with thallium.
Sequence of UniProt P70579 (P70579 whole entry, looked up): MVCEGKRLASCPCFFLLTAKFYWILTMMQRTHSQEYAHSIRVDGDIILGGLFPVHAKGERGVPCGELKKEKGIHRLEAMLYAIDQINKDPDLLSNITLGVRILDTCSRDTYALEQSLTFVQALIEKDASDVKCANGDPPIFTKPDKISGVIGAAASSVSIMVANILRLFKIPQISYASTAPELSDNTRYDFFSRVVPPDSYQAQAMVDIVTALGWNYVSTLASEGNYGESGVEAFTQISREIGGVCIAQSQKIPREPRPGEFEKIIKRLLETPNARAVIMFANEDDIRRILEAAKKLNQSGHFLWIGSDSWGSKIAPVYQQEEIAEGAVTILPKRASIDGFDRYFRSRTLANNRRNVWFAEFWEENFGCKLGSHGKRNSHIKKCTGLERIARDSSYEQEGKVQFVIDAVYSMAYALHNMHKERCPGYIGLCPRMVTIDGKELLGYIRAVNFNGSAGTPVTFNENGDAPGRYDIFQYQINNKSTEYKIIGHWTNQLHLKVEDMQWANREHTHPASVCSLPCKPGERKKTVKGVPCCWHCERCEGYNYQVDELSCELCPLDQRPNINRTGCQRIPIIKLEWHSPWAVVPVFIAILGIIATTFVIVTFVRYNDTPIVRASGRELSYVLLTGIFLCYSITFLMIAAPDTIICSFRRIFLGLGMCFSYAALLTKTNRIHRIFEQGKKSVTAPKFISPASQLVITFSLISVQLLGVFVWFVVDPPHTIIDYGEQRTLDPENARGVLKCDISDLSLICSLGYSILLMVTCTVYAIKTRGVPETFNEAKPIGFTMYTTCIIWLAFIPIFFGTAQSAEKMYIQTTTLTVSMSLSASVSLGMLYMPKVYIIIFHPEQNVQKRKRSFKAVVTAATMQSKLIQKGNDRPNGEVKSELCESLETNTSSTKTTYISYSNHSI

Compound | z-score
CCOCCCNC(=O)C(NC(=O)c1cnccn1)c1ccc(C)cc1 (stereo not given) | -0.074
O=C1CSC(c2cn(-c3ccccc3)nc2-c2ccc3c(c2)OCCO3)N1CCN1CCOCC1 (stereo not given) | -0.686
CC(=O)N(Cc1cccs1)C1CCOC(C)(C)C1 (stereo not given) | -0.145
CC(C)CN(C(=O)COC(=O)C12CC3CC(CC(O)(C3)C1)C2)C1CCS(=O)(=O)C1 (stereo not given) | -0.449
COc1ccc(CCNC(=O)CSc2nn(-c3ccccc3)c(=S)s2)cc1OC | -0.438
COc1ccc(NC(=O)CS(=O)CC(=O)Nc2cc(Cl)ccc2OC)cc1 (stereo not given) | 0.00382
O=C(NCCCn1ccnc1)C1CC(c2cccc(Br)c2)=NO1 (stereo not given) | 0.193
CC(=O)c1c(NCCc2ccccc2)cc(C)oc1=O | -0.739
CC(NC(=O)NC1CCCCC1)c1ccccc1 (stereo not given) | -0.00749
COc1ccc(CNC(=O)C/C(C)=N/NC(=O)C(c2ccccc2)c2ccccc2)cc1 | -1.15
Cc1ccc(NC(=O)C(NC2CCCc3ccccc32)c2ccccc2)c([N+](=O)[O-])c1 (stereo not given) | 2.09
COC(=O)C(Cc1cnc(Cl)s1)(C(=O)OC)c1ccccc1[N+](=O)[O-] | 0.111
Cc1cc(C)cc(N2C(=O)CC(N3CCOCC3)C2=O)c1 (stereo not given) | 0.58
CC(C)CC(NC(=O)c1ccc(Cl)cc1Cl)C(=O)O (stereo not given) | -0.413
CC(=O)c1cccc(NC(=O)c2ccc(NS(C)(=O)=O)cc2)c1 | -0.67
Cc1ccc(OCC(O)Cn2c(N3CCOCC3)nc3c2c(=O)[nH]c(=O)n3C)cc1 (stereo not given) | 0.225
C#CC(CC)(CC)NC(=S)Nc1ccc(S(N)(=O)=O)cc1 | -0.581
CCOC(=O)CSc1c(-c2ccccc2)c2cc(Cl)ccc2[nH]c1=O | -0.516
CCCn1c(=N)n(CC(O)c2ccco2)c2ccccc21 (stereo not given) | 0.907
COc1ccc(NC(=O)CNS(=O)(=O)c2cccs2)c(OC)c1 | -0.279
COc1cc(NS(=O)(=O)c2ccc(NC(=O)COc3ccc(C)cc3C)cc2)nc(OC)n1 | -0.0792
CCNC(=O)c1cc(Br)ccc1Cl | -0.416

Compound | z-score
O=C(NC(CC(=O)N1CCN(c2ccccc2)CC1)c1ccccc1)c1ccccc1Cl (stereo not given) | -0.37
CCN(CC)S(=O)(=O)c1cccc(C(=O)N/N=C/c2cc(OC)c(O)c(OC)c2)c1 | -0.593
CC(C)(C)NC(=O)NC(=O)COC(=O)C1=COCCO1 | 0.249
O=C(COc1ccccc1)Nc1nc(-c2ccc(S(=O)(=O)N3CCOCC3)cc2)cs1 | -0.105
Cc1cc2n(n1)C(c1ccc(N(C)C)cc1)Nc1ccccc1-2 (stereo not given) | -0.077
COc1ccccc1N1CCN(CC(=O)Nc2ccc(Cl)c(C(F)(F)F)c2)CC1 | 0.377
Cn1nc(C(=O)NCC2CCCO2)c2ccccc2c1=O (stereo not given) | -0.154
COC(=O)c1ccc2c(=O)n(CCCCCC(=O)NCc3ccc4c(c3)OCO4)c(=O)[nH]c2c1 | 0.613
CC(C)(C)c1ccc2c(c1)OC(C(=O)N/N=C\c1ccccn1)CO2 (stereo not given) | 0.0186
O=C(N/N=C1/C(=O)c2cccc3cccc1c23)c1ccc(Cl)cc1 | active: 3.2
Nc1nonc1-c1noc(CCCCCN2C(=O)c3ccccc3C2=O)n1 | -0.386
O=C(Nc1c(C(=O)Nc2cccc(F)c2)oc2ccccc12)c1ccc2c(c1)OCO2 | -0.0192
O=C1CCC(=O)N1c1nc2n(n1)C(c1ccccc1)C=C(c1ccc(Br)cc1)N2 (stereo not given) | 1.09
COc1ccc(NC(C)=O)cc1NC(=O)CSc1nnc(-c2cccnc2)n1C | 0.416
CCC(=O)c1ccccc1OCCCN1C(=O)NC(C)(C)C1=O | 0.365
Cc1cc(C)c(C(=O)OCCNC(=O)c2cccnc2)cc1C | 0.326
Cc1cc(F)ccc1NCc1cccnc1 | -0.116
CCCc1nc(SCC(=O)Nc2ccc(N3CCOCC3)cc2)c2ccccc2n1 | 0.0725
NC(=O)c1ccccc1NC(=O)/C=C/C(=O)O | 0.214
CCSc1nc2sc3c(c2c(=O)[nH]1)CCc1ccccc1-3 | -0.0881
CCN(CCN(C)C)C(=O)Cn1ncc2c1-c1cc(C)ccc1OC2 | -0.602
CCN1CCN(C(c2cccs2)C(C)NC(=O)c2cccnc2)CC1 (stereo not given) | 0.292

Compound | z-score
COc1ccccc1C(=O)Nc1nnc(C)s1 | -0.136
CCSc1nnc(NC(NC(=O)c2ccco2)(C(F)(F)F)C(F)(F)F)s1 | -0.0439
COCCCNC(=O)CCc1ccc(S(=O)(=O)Nc2ccc(C)cc2)cc1 | 0.805
CCc1ccc(CN(C)CC(=O)Nc2ccccc2[N+](=O)[O-])cc1 | -0.428
COC(=O)c1c(C)c2c(C)cc3ccccn3c-2c1C(=O)OC | -0.152
Cc1cccc(NC(=O)C2CC(O)CN2C(=O)OCc2ccccc2)c1 (stereo not given) | -0.262
Cc1ccc(N(CC(O)CN(C)C)S(=O)(=O)c2ccccc2)cc1 (stereo not given) | 1.2
O=C(CCCC(=O)N(CC(=O)NC1CCCCC1)Cc1ccccc1)Nc1ccccn1 | -0.717
Cc1csc(NC(=O)CSc2nncn2C)n1 | 0.18
COc1cc2nc(N3CCNCC3)nc(N)c2cc1OC | 0.304
CCCCn1nc2cc(C(=O)NCc3cc(C(F)(F)F)cc(C(F)(F)F)c3)ccc2c1OC | -0.00486
COc1cnn(-c2ccccc2)c(=O)c1SCc1ccc(Cl)c(Cl)c1 | -0.358
CC(CN1CCOCC1)c1ccccc1 (stereo not given) | 1.96
Cc1cc(Cl)cc(Cl)c1OCCOc1cccc2cccnc12 | -0.157
O=C(NCCCNC(=O)C(F)(F)C(F)F)C(F)(F)C(F)F | -0.142
Cc1cc(C)c(OCC(=O)Nc2nnn(C)n2)c(Br)c1 | -0.637
COc1ccc(C(=O)/C=C/c2cccs2)c(OC(=O)N2CCOCC2)c1 | -0.0631
C/C(=N\NC(=O)Cc1cccn1C)c1cccc2ccccc12 | -0.3
O=C(NCc1ccco1)c1cccn2c(=O)c3cc4ccccc4cc3nc12 | 0.148
O=C(CCCNC(=O)/C(=C/c1ccc(F)cc1)NC(=O)c1ccccc1)OCc1ccccc1 | -1.02
Nc1cc(-c2nc3ncccc3o2)ccc1Cl | -0.0537
COc1ccc(S(N)(=O)=O)cc1C(=O)NCCCN1CCN(c2cccc(Cl)c2)CC1 | -1.11

Compound | z-score
Cc1sc2c(c1C)CN(Cc1ccncc1)CN2C(=O)c1ccco1 | -0.32
CCN(CC(=O)Nc1cccc(OC)c1)C(=O)c1ccc(C)s1 | -0.139
COc1ccc(OC)c(C2CC(=O)Nc3cc(OC)c(OC)c(OC)c32)c1 (stereo not given) | -0.23
COc1ccc(/C=C(\C#N)C(=O)OCC(=O)NCc2ccc(Cl)cc2)cc1 | -0.178
O=c1c(/C=C(\O)c2ccccc2)nc2ccccc2n1-c1ccccc1 | -0.452
O=C(C1CCCN(S(=O)(=O)c2cccnc2)C1)N1CCN(c2ccccn2)CC1 (stereo not given) | -0.29
CC1CC(=O)C=C(O)C1C(=O)OC(C)(C)C (stereo not given) | 0.0252
COc1cc2c3c(c1OC)C1(C=CC(=NO)C=C1)CC3N(C(C)=O)CC2 (stereo not given) | -0.0199
CS(=O)(=O)N(CCc1ccccc1)CC(=O)NCc1ccc2c(c1)OCO2 | active: -7.82
O=C(CN(CCc1ccccc1)S(=O)(=O)c1ccc(Cl)cc1)N/N=C/c1ccc2c(c1)OCO2 | -0.644
COc1ccc(N2CCN(c3oc(-c4ccccc4OC)nc3C#N)CC2)cc1 | -1.28
CCN(C(=O)CN1CCN(c2ccccc2OC)CC1)c1c(N)n(Cc2ccccc2)c(=O)[nH]c1=O | 0.391
CC(=O)NCC(=O)OC(C)C(=O)Nc1ccc(C(C)=O)cc1 (stereo not given) | 0.409
COc1ccc(NC(=O)CSc2nnc(-c3ccccc3C)n2C)cc1 | -0.332
Cc1ccc(C(=O)NCC2CCCO2)o1 (stereo not given) | 0.996
CC(=O)c1ccc(N2CCN(c3ccc(C(F)(F)F)cn3)CC2)cc1 | 0.079
O=C(Cc1cccs1)N1CCCC(c2nc(-c3ccc(S(=O)(=O)N4CCCC4)cc3)no2)C1 (stereo not given) | -0.767
CC(/C=N/NC(=O)CSc1ccccn1)=C\c1ccc(C(C)C)cc1 | -0.206
Clc1ccccc1OCc1nc(-c2ccc(Br)o2)no1 | -0.648
COc1ccc(CC(=O)Nc2nc3n(n2)C(c2ccccc2)CC(=O)N3)cc1OC (stereo not given) | 0.131
CCCn1c(C(C)NC(=O)c2ccccc2)nc2ccccc21 (stereo not given) | -0.0102
N=c1n(CC(=O)c2ccc([N+](=O)[O-])cc2)c2ccccc2n1Cc1ccc(Cl)cc1 | 0.351

Compound | z-score
Clc1cccc(N=C2NN=C(c3ccc4c(c3)OCCO4)CS2)c1 | 0.489
CS(=O)(=O)N1CCc2ccccc2C1 | 0.166
C=CC[n+]1c(-c2ccc(OC)c(OC)c2)csc1NNC(=O)Nc1ccccc1 | -0.698
CC(C)(C)N/N=C1\CC(c2ccccc2)Oc2ccccc21 (stereo not given) | 0.00592
COc1ccc(CNC(=O)CCCn2c(SCC#N)nc3cc4c(cc3c2=O)OCO4)cc1 | -0.105
Cn1c(=O)c2c(ncn2CC(=O)N/N=C/c2ccc(Br)s2)n(C)c1=O | 2.47
CNC(=O)c1cn(-c2ccccc2)c(=O)c2ccccc12 | -0.122
COCCNc1oc(COc2cccc(C)c2)nc1C#N | 0.0473
Cc1ccccc1NC(=O)COC(=O)CN1C(=O)NC(C)(C)C1=O | -0.186
N#CCOc1ccc(C2=NO[C@@H]3[C@@H]4C[C@@H]([C@H]5C(=O)N(c6ccc7c(c6)OCO7)C(=O)[C@@H]45)[C@H]23)cc1 | -0.00301
CC(C)NC(=O)CSc1nc(N)c(NC(=O)c2ccccc2F)c(=O)[nH]1 | -0.204
COc1nc(/C(N)=N/O)nc(N2CCCCC2)n1 | -0.0591
CC(c1ccccc1)n1cc(C(=O)NCCN2CCOCC2)nn1 (stereo not given) | 0.475
Cc1occc1C(=O)N1CCN(c2ccc(Cl)c(Cl)c2)CC1 | 1.37
c1ccc(Nc2c(-c3ccco3)nc3ccccn23)cc1 | -0.458
CCc1ccc(CN2CC(C(=O)O)CC2=O)cc1 (stereo not given) | -0.0355
Cc1cccc(C)c1NC(=O)C1(NC(=O)c2cnccn2)CCCCC1 | -0.368
Cc1nc(Cl)c(C#N)cc1-c1ccccc1 | 0.358
CC(=O)c1cccc(N=C2NC(=O)CS2)c1 | 0.169
CC1=C(C(=O)OC(C)C)C(c2cccs2)n2ncnc2N1 (stereo not given) | -1.01
CC1CCN(CCCCOc2ccc(C(=O)c3ccccc3)cc2)CC1 | 2.47
COc1cc(/C=N/NC(=O)CCN2CCN(c3ccccc3)CC2)cc(OC)c1OC | -0.254
